# Laboratory results as given in publication PMC12040169 (PLOS Biology, 2025).
# This is one part of the list.
# System: T1, C. trachomatis L2/434/Bu expressing GFP (CTL2-GFP)
# T1 construct: L2/434/Bu GFP intracellular growth in HeLa cells
# Set-up: species or system HeLa; C. trachomatis total inclusion area by high-content imaging, normalised to DMSO
# Conditions: total inclusion area; 28.5 h, 10 µM; inhibitor
# Procedure, shortened: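 High-content imaging followed the bulk GFP/resorufin measurement: fixed, Hoechst-stained cells were scored for GFP inclusions and host nuclei per well. Total inclusion area and count served as growth proxies, nuclei number as the viability proxy. MIC calculation matched the bulk assay.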
row,Compound,% of control remaining
1,O=C(O)c1ccc(Oc2ccc3c(c2)C(=O)N(c2nccs2)C3=O)cc1 [CBK261200],91.5357
2,Cc1ccc(S(=O)(=O)Nc2ccsc2C(=O)Nc2ccc(F)cc2)cc1 [CBK004571],82.4062
3,CC1(C(C)(O)C(F)F)OC(NC2C3CC4CC(C3)CC2C4)=NC1=O (centres unmarked) [CBK137190],91.794
4,CC1CC(/N=C2/NCCS2)CC(C)(C)C1 (centres unmarked) [CBK020293],120.078
5,CC(=O)Nc1ccc(Nc2nc(-c3ccc(O)cc3)cn3ccnc23)cc1 [CBK037992],112.87
6,Nc1ccc(C(=O)Nc2ccc(-c3nc4ccc(NC(=O)c5ccc(N)cc5)cc4[nH]3)cc2)cc1 [CBK261147],47.0725
7,CN(C)C(=O)CSc1nnc(-c2cccc3ccccc23)n1-c1ccccc1 [CBK266044],139.423
8,Cn1c(=O)c2ncn(CC(=O)Nc3ccc(N4CCN(Cc5ccccc5)CC4)cc3)c2n(C)c1=O [CBK266875],100.607
9,Cc1c(Cc2ccccc2)c(N2CCN(C/C=C/c3ccccc3)CC2)n2c(nc3ccccc32)c1C#N [CBK263112],95.2546
10,CC(=O)N1CCC(N2C[C@H](O)C[C@H]2c2nc(-c3cccc([N+](=O)[O-])c3)no2)CC1 [CBK288846],119.21
11,Nc1ccc(-c2cc(N)n(-c3ccc(Oc4ccccc4)c(S(=O)(=O)O)c3)n2)cc1 [CBK261563],36.1343
12,CN(Cc1nccs1)C(=O)c1cccc(OCC(=O)N2CCCCC2)c1 [CBK307478],56.5615
13,Nc1cc2c(cc1Cl)C(=O)NC2=O [CBK028783],100.793
14,CCN(CC)CCN(Cc1ccc2c(c1)OCO2)C(=O)Nc1ccc2[nH]ccc2c1 [CBK159037],79.1922
15,COc1ccc([C@H]2CN(Cc3ccccc3)C[C@@H]2NC(=O)CCc2ccco2)cc1 [CBK286477],89.4915
16,COc1cccc(N(CC(=O)Nc2ccccc2Cl)S(=O)(=O)c2ccc(C)cc2)c1 [CBK263791],104.921
17,Nc1nc2cc3c(cc2[nH]1)OCO3 [CBK023191],91.6783
18,O=C(COc1ccc(Br)cc1C(=O)O)Nc1ccc(F)cc1 [CBK286671],81.1776
19,COC(=O)c1c(NC(=O)C2CC=CCC2C(=O)O)sc2c1CCC(C)C2 (centres unmarked) [CBK262655],95.8654
20,c1coc(CN2CCC(c3ccc4c(c3)OCO4)CC2)c1 [CBK284001],52.8105
21,C[C@H](Oc1cncc(N2CCNCC2)n1)c1ccccc1Cl [CBK172341G],90.5195
22,Cc1nc(C)c(C(=O)N2CCCc3ccccc32)s1 [CBK200345],104.346
23,Cc1cnc(CNS(=O)(=O)c2ccc(F)cc2)cn1 [CBK050489],52.2022
24,CN(C)S(=O)(=O)c1cccc(C(=O)NCc2ccco2)c1 [CBK270135],125.869
25,CC(C)C(=O)N1C[C@H]2NC(=O)c3ccccc3C(=O)[C@@]2(C)C1 [CBK281658],77.7615
26,COc1ccc(CN(C)CCN(C)C)c(O)c1 [CBK261915],88.8992

row,Compound,% of control remaining
1,N=C(N)SCc1ncccc1O [CBK278318C],91.9413
2,O=C(Nc1ccc(N2CCNCC2)c2ccccc12)c1coc2c1C(=O)CCC2 [CBK038946T],56.1916
3,Cc1ccc(Cn2nc(C)c(NC(=O)c3nc4ncccn4n3)c2C)cc1 [CBK268912],85.5097
4,Brc1ccc(CN2CCN3CCCC3C2C2CCCCC2)o1 (centres unmarked) [CBK021456],43.0468
5,Nc1nonc1C(=O)NCCNCc1cccs1 [CBK267305],94.8762
6,COc1ccc(-c2cc(C(=O)NCc3nc4ccccc4[nH]3)cnc2-c2ccccc2)cn1 [CBK037579],157.117
7,CC1CCCCC1NC(=O)CSc1nnc(CN2CCOCC2)n1C (centres unmarked) [CBK266662],117.014
8,COc1cccc(COc2nccnc2/C=C/c2ccccc2)c1OC [CBK106888],123.116
9,CCN(CC)C(=O)C1CCCN(C(=O)c2ccc3c(c2)COC(C2CCN(C(=O)OC(C)(C)C)CC2)O3)C1 (centres unmarked) [CBK173279],97.1129
10,O=C1N[C@@H]2CCN(S(=O)(=O)c3cccs3)[C@@H]2C(=O)N1c1ccc(F)cc1 [CBK289326],100.546
11,COc1ccc(C=Cc2cc(C(=O)O)c3ccccc3n2)cc1OC(F)F [CBK296953],98.3692
12,CCc1ccc(NC(=O)CNc2cc(C)ccc2OC)cc1 [CBK297553],95.4212
13,CCC(=O)N1CCCc2cc(C(O)CN3CCCCC3)ccc21 (centres unmarked) [CBK282130],93.7366
14,Cc1cc(C)n(C(C)CNC(=O)C(C)Cn2cccn2)n1 (centres unmarked) [CBK281639],91.6022
15,CCN(Cc1ccc(C#N)cc1F)C(=O)Nc1cnn(CC)c1 [CBK305702],71.9583
16,O=C(Nc1ncccn1)C1CCCCC1 [CBK027567],106.945
17,Fc1ccc(-c2cncc(NCCCN3CCOCC3)n2)c(F)c1 [CBK065867],81.0745
18,O=[N+]([O-])c1cc(/C=N/Nc2nc(N3CCOCC3)nc(N3CCOCC3)n2)c(O)c([N+](=O)[O-])c1 [CBK261237],98.0184
19,Nc1ncc(-c2ccc(C(=O)O)cc2)nc1-c1ccc(C(=O)N2CCOCC2)cc1 [CBK084518],98.2734
20,O=C(COc1ccc([N+](=O)[O-])cc1)Nc1ccc2oc(-c3ccc(Br)cc3)nc2c1 [CBK263444],81.0512
21,NC(=O)C1(Cc2cccc(-c3cccs3)c2)CCN(C(=O)CCc2ccccc2)CC1 [CBK285782],119.174
22,FC(F)(F)c1cc(NCCC2CCCCN2)cc(C(F)(F)F)c1 (centres unmarked) [CBK016963],110.29
23,CC(=O)N[C@H]1C[C@@H](Cc2cc(CN3CCN(c4ccccc4)CC3)on2)C1(C)C [CBK289241],85.0334
24,CCOc1ccc(C(=O)C2=C(O)C(=O)N(CCN(C)C)C2c2cccnc2)cc1Cl (centres unmarked) [CBK266585],110.984
25,O=C(O)CSc1nnc(C2COc3ccccc3O2)n1-c1ccccc1 (centres unmarked) [CBK263832],82.245
26,c1ccc2[nH]c(CCCCCc3nc4ccccc4[nH]3)nc2c1 [CBK267694],89.8735

row,Compound,% of control remaining
1,CCOC(=O)C1(C2CCCCC2)CCN(C(=O)C(c2ccccc2)c2ccccc2)CC1 [CBK136943],61.8504
2,O=C(O)c1[nH]c2ccccc2c1NS(=O)(=O)c1cc(F)c(Br)cc1F [CBK049885],91.6045
3,CN1CCC[C@H]1C(=O)N1CCCC2(CCN(Cc3ccccc3)C2)C1 (some centres unmarked) [CBK136901],83.7838
4,COCCn1c(SCc2ccc([N+](=O)[O-])cc2)nc2c([nH]c3ccccc32)c1=O [CBK294415],105.423
5,COc1cc(CN2Cc3cccc(C(=O)O)c3C2=O)cc(OC)c1OC [CBK291227],113.498
6,N#Cc1c(NC(=O)c2ccc(C(=O)O)cc2C(=O)O)sc2c1CCCC2 [CBK262722],108.944
7,COc1ccc(NC(=O)N[C@H]2[C@H](O)[C@@H](N3CCOCC3)[C@@H]3OC[C@H]2O3)cc1 [CBK288820],127.776
8,Cc1cccnc1NC(=O)C1CCCN1S(=O)(=O)c1ccc(Cl)cc1 (centres unmarked) [CBK269914],119.599
9,COc1cc(Nc2cccc(-c3ccc4ccccc4c3)n2)cc(OC)c1OC [CBK037612],80.531
10,COc1ccc(CNC(=O)CN2CCCC(Cn3cncn3)C2)cc1 (centres unmarked) [CBK305339],89.1319
11,CC(=O)N1CCC(C(=O)NC(=O)NCc2ccc3c(c2)CCO3)CC1 [CBK034837],77.9414
12,CCOc1cccc(CNc2ccc(N3CCOCC3)c(C(=O)O)c2)c1 [CBK269973],96.4169
13,Cc1n[nH]cc1-c1nsc(Nc2ccccc2)n1 [CBK113680],83.538
14,CC(=O)N1CCCC(c2cc3cccnc3n2CC(=O)N(C)C)C1 (centres unmarked) [CBK285177],101.316
15,COc1cc([C@@]23CC[C@@H](NC(=O)Nc4cccc(C(F)(F)F)c4F)C[C@@H]2N(C)CC3)ccc1C#N [CBK078562],78.3084
16,CN1CCC(N2CCN(C(=O)c3cnc(-c4ccccn4)nc3C(F)(F)F)CC2)CC1 [CBK149089],90.2492
17,CCOc1ccc(Nc2ncnc3c2cnn3Cc2ccccc2)cc1 [CBK072752],91.0818
18,O=C(CSc1ccc(Cl)cc1)N1CCN(c2ccc([N+](=O)[O-])c(N3CCOCC3)c2)CC1 [CBK269670],102.231
19,Cc1ccc(/C=C2\SC(=S)N(CCCC(=O)N3CCC(Cc4ccccc4)CC3)C2=O)cc1 [CBK264356],107.069
20,O=C(Cc1cccc2ccccc12)Nc1cc(C(=O)O)cc(C(=O)O)c1 [CBK268475],123.424
21,CC1CCc2c(C(=O)N3CC(C)OC(C)C3)csc2C1 (centres unmarked) [CBK304442],65.2702
22,COc1ccccc1NC(=O)Cn1nc(-c2ccc(C)cc2)ccc1=O [CBK269974],87.2478
23,CO[C@@H]1CO[C@H]2[C@@H]1OC[C@@H]2NC(=O)Nc1cccc(C(F)(F)F)c1 [CBK289461],96.2657
24,Cc1ccc(C(=O)C2(O)CCN(CCCC(c3ccc(F)cc3)c3ccc(F)cc3)CC2)cc1 [CBK025221C],1.301
25,O=C(CC(CN1CCCN(c2ncccn2)CC1)C(=O)O)NCc1ccccc1 (centres unmarked) [CBK286856],90.0437
